Reference: PubChem BioAssay AID485281 (National Center for Advancing Translational Sciences (NCATS), 2010)
In all, about 350,000 compounds went through this assay and about 260 (0.074%) were called active. This list was built around the results that the source calls inconclusive (neither active nor inactive); the mix of calls is not that of the screen. Calls follow the shape of the dose curve; as a rule, active = well fitted inhibition curve with a large enough effect; inconclusive = small, poorly fitted or top-dose-only effect; inactive = no such curve, though single readings can be large or run the other way. Where the call is inconclusive, the potency comes from a doubtful curve fit.

Molecular target: Ferritin light chain (Equus caballus) (UniProt P02791)
Sequence of UniProt P02791 (P02791 whole entry, looked up): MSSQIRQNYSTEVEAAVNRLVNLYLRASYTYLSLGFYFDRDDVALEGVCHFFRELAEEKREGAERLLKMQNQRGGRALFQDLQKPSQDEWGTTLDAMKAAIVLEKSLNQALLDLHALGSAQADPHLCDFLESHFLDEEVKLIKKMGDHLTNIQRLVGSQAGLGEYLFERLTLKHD
Assay: qHTS Assay for Identification of Novel General Anesthetics; also: nearly all actives have a fitted effect of over 20% in size
Conditions: apoferritin/1-aminoanthracene competitive binding, fluorescence; activity change, negative = displacement: at 77.5 µM (top of the series)
In short: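 Concentration-response curves derived by four-parameter Hill fitting of normalized fluorescence, where compounds displaced 1-AMA from 10 uM horse apoferritin following a brief 10 min room-temperature incubation; propofol titration acted as positive control.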
% is scaled to controls: 0 for no effect and ±100 for the full control effect; potency is read from the fitted curve at half-maximal effect; tags tell the direction and shape of the fitted curve.

Compound | Potency | activity change, negative = displacement
COc1cccc(N2CCN(CC(=O)C34CC5CC(CC(C5)C3)C4)CC2)c1 | inconclusive: 25.1 µM [inhibitor, partial curve, poor fit] | –
Cc1nnc(SC(C)C(=O)Nc2ccc(S(=O)(=O)N3CCCCCC3)cc2)s1 (configuration not stated) | inconclusive: 28.2 µM [inhibitor, partial curve] | –
Cc1ccc(-c2ccc(=O)n(CC(=O)NC(C)c3ccccc3)n2)cc1 (configuration not stated) | inconclusive: 14.1 µM [inhibitor, partial curve] | –
CCOC(=O)OCC1OC(C#Cc2ccccc2)C=CC1Oc1cccc(N(C)C)c1 (configuration not stated) | inconclusive: 6.31 µM [inhibitor, partial curve] | –
c1ccc(CN=C2NN=C(c3ccccc3)CS2)cc1 | – | inactive: -13.2%
CCOc1ccccc1C(=O)OCC(=O)Nc1ncc(C(F)(F)F)cc1Cl | inconclusive: 44.7 µM [inhibitor, single point] | –
COc1c(CC=C(C)C)cc(C2CC(=O)c3c(O)cc(O)cc3O2)cc1CC=C(C)C (configuration not stated) | inconclusive: 15.8 µM [inhibitor, partial curve] | –
CCCn1c(C)cc(C(=O)COC(=O)c2ccc(Cl)c(S(=O)(=O)N3CCCC3)c2)c1C | inconclusive: 17.8 µM [inhibitor, partial curve] | –
COC(=O)c1ccccc1S(=O)(=O)N1CCC(c2nc3ccccc3o2)CC1 | inconclusive: 25.1 µM [inhibitor, single point] | –
O=C(N/N=C\c1ccccn1)C1COc2cc3ccccc3cc2O1 (configuration not stated) | inconclusive: 28.2 µM [inhibitor, partial curve] | –
CCOc1ccc(S(=O)(=O)Nc2ccc(S(=O)(=O)N3CCCC3)cc2)cc1 | inconclusive: 56.2 µM [inhibitor, single point] | –
COc1ccc2nc(Nc3nc(C)c(C(C)=O)s3)sc2c1 | inconclusive: 11.2 µM [inhibitor, full curve, poor fit] | –
CN(c1cccc(Cl)c1)S(=O)(=O)c1cccc(C(=O)NC2=NCCS2)c1 | inconclusive: 17.8 µM [inhibitor, partial curve] | –
Cc1cccc(CNc2ccc(C(CC(N)=O)NC(=O)c3cccc(Br)c3)cc2[N+](=O)[O-])c1 (configuration not stated) | inconclusive: 15.8 µM [inhibitor, partial curve] | –
CCN(C(=O)Cn1c(SCc2ccccc2F)nc2cccnc21)c1ccccc1 | – | inactive: -14.2%
CCn1c(Cl)c(C=O)s/c1=N\S(=O)(=O)c1ccccc1 | – | inactive: -6.62%
Cc1ccc(C(=O)O/N=C2\CC3CCC2(C)C3(C)C)cc1 (configuration not stated) | inconclusive: 39.8 µM [inhibitor, partial curve] | –
C/C(CC(=O)Nc1cccc(C(F)(F)F)c1)=N\NC(=O)C1CCCCC1 | inconclusive: 14.1 µM [inhibitor, partial curve] | –
O=C(CN1C(=O)c2ccccc2S1(=O)=O)c1ccccc1Cl | inconclusive: 28.2 µM [inhibitor, partial curve] | –
O=C(NCC(c1ccco1)N1CCCCC1)c1ccc(NS(=O)(=O)c2ccc(F)cc2)cc1 (configuration not stated) | inconclusive: 39.8 µM [inhibitor, single point] | –
Fc1ccccc1CSc1nnc(-c2cccs2)o1 | inconclusive: 28.2 µM [inhibitor, partial curve] | –
O=C(OCc1cccc([N+](=O)[O-])c1)c1ccc2ccccc2n1 | inconclusive: 50.1 µM [inhibitor, single point] | –
Cc1ccc(-c2nnc(N3CCN(C(=O)c4ccco4)CC3)c3ccccc23)cc1 | inconclusive: 35.5 µM [inhibitor, partial curve] | –

Compound | Potency | activity change, negative = displacement
Cc1cccc(OCCN2C(=O)c3ccccc3C2=O)c1 | inconclusive: 35.5 µM [inhibitor, partial curve] | –
Cc1cccc(NC(=S)NNC(=S)NCc2ccccc2)c1 | inconclusive: 39.8 µM [inhibitor, partial curve] | –
Cc1cccc(N=Nc2c(C)c(C#N)c(O)[nH]c2=O)c1 | – | inactive: -12.1%
CCOc1ccc(NC(=O)C(CC)n2nc(-c3ccc(C)c(C)c3)ccc2=O)cc1 (configuration not stated) | inconclusive: 25.1 µM [inhibitor, partial curve] | –
Cc1ccc2c(Cl)cc(Cl)c(OCC(=O)Nc3cccc(S(N)(=O)=O)c3)c2n1 | inconclusive: 56.2 µM [inhibitor, single point] | –
COc1ccc(CNC(=O)c2c(N)n(CCCN3CCOCC3)c3nc4ccccc4nc23)cc1 | – | inactive: 184%
COc1ccc(NC(=O)/C(C#N)=C/c2c(C)nn(-c3ccc(F)cc3)c2Cl)cc1OC | inconclusive: 20 µM [inhibitor, partial curve] | –
N/C(=N\OC(=O)CCC1CCCC1)c1cccc([N+](=O)[O-])c1 | inconclusive: 56.2 µM [inhibitor, single point] | –
COc1ccc(-c2cc(C(F)(F)F)nc(S(=O)(=O)CCCC(=O)Nc3ccccc3C(F)(F)F)n2)cc1OC | – | inactive: -13.1%
COc1cc(OC)c2c(=O)cc(-c3ccccc3)oc2c1 | – | inactive: -12.8%
c1ccc(CCNc2ccccc2)cc1 | inconclusive: 15.8 µM [inhibitor, partial curve] | –
CCN(C(=O)CSc1nnc(-c2ccc(Cl)cc2)o1)c1ccccc1 | inconclusive: 31.6 µM [inhibitor, partial curve] | –
Cc1ccc(C(c2sc3nc(C)nn3c2O)N2CCN(c3ccccc3F)CC2)cc1 (configuration not stated) | inconclusive: 28.2 µM [inhibitor, partial curve] | –
Cc1ccc(S(=O)(=O)N[C@H](C(=O)OCn2nnc3ccccc3c2=O)C(C)C)cc1 | inconclusive: 39.8 µM [inhibitor, partial curve] | –
O=[N+]([O-])c1cccc(S(=O)(=O)N2CCCCC2)c1 | inconclusive: 39.8 µM [inhibitor, single point] | –
O=C(CSc1nc(-c2ccco2)nc2cc(=O)[nH]n12)Nc1ccccc1Cl | – | inactive: -0.353%
Cc1ccc(C)c(N2CCN(CCCNC(=O)Cn3c(-c4cccs4)cc4ccccc43)CC2)c1 | – | inactive: -18.6%
CCOC(=O)c1cnc(-n2nc(C)cc2C)nc1NCCc1ccccc1 | inconclusive: 31.6 µM [inhibitor, partial curve] | –
S=C(NCCC(c1ccccc1)c1ccccc1)Nc1ccc(Cl)cc1 | – | inactive: 45.9%
COc1ccc(S(=O)(=O)NCCSCc2ccco2)cc1OC | inconclusive: 25.1 µM [inhibitor, partial curve] | –
CCOc1cc(/C=N/NC(N)=O)ccc1OC(=O)c1ccc(C)cc1 | inconclusive: 39.8 µM [inhibitor, single point] | –
COc1ccc(OCc2nnc(SCC(=O)N3C(C)CCCC3C)o2)cc1 (configuration not stated) | inconclusive: 35.5 µM [inhibitor, single point] | –
O=C(O)C1CC=CCC1C(=O)Nc1cccc(Cl)c1Cl (configuration not stated) | inconclusive: 50.1 µM [inhibitor, partial curve] | –

Compound | Potency | activity change, negative = displacement
Cc1nc2ccc(C(C(F)(F)F)(C(F)(F)F)C(F)(F)F)cc2[nH]1 | inconclusive: 20 µM [inhibitor, partial curve] | –
Cc1cc(N/N=C/c2c[nH]c3ccccc23)c2ccccc2n1 | inconclusive: 31.6 µM [inhibitor, single point] | –
CCN(CC)S(=O)(=O)c1cc([N+](=O)[O-])ccc1NNC(=O)Nc1ccccc1 | inconclusive: 14.1 µM [inhibitor, partial curve] | –
COc1ccc(-n2nnnc2SCC(=O)c2ccc3c(c2)OCCO3)cc1 | – | inactive: -1.84%
O=C1c2ccccc2C(=O)N1CC#CCN1CCN(C(c2ccccc2)c2ccccc2)CC1 | inconclusive: 0.891 µM [inhibitor, full curve, poor fit] | –
CCOC(=O)N1CCN(c2ncnc3c2cnn3-c2ccc(OC)cc2)CC1 | inconclusive: 15.8 µM [inhibitor, partial curve] | –
Nc1nnc(CSCc2cccc(Br)c2)s1 | inconclusive: 15.8 µM [inhibitor, partial curve] | –
CC(=O)Nc1ccc(S(=O)(=O)N2CCN(c3cc(C)ccc3C)CC2)cc1 | – | inactive: -19.7%
COc1ccc(/C=N/NC(=O)c2ccncc2)cc1OC | – | inactive: -2.98%
Cc1ccc(-c2nc(-c3ccccn3)no2)cc1Cl | inconclusive: 22.4 µM [inhibitor, partial curve] | –
Cc1ccc(C(=O)NC(=S)Nc2ccc(-c3ccc(CO)o3)cc2)cc1 | inconclusive: 12.6 µM [inhibitor, partial curve] | –
c1ccc(CSc2nnc(-c3ccco3)n2Cc2ccco2)cc1 | inconclusive: 50.1 µM [inhibitor, partial curve, poor fit] | –
CCOC(=O)c1cc(-c2ccc(C)cc2)n(CC(=O)Nc2cccc(C(C)=O)c2)c1C | inconclusive: 3.98 µM [inhibitor, full curve] | –
COc1ccc(/C=N/n2cncn2)cc1Cn1cc([N+](=O)[O-])cn1 | – | inactive: -5.71%
O=C(CC1N=C2c3ccccc3N=C(SCC(=O)Nc3cccc(Cl)c3)N2C1=O)NCc1cccs1 (configuration not stated) | – | inactive: -14.3%
O=C(CSc1nc2ccccc2s1)c1cc2ccccc2o1 | inconclusive: 35.5 µM [inhibitor, partial curve] | –
CCN1CCc2c(sc(NC(=O)c3ccc(C(=O)c4ccccc4)cc3)c2C(N)=O)C1 | inconclusive: 31.6 µM [inhibitor, partial curve] | –
O=C(NNC(=S)Nc1ccc(Cl)cc1)c1ccccc1 | – | inactive: -6.26%
CC(NC(=O)CCSc1nc(-c2ccco2)cc(C(F)(F)F)n1)c1ccccc1 (configuration not stated) | inconclusive: 25.1 µM [inhibitor, partial curve] | –
Nc1ccc(-c2nc3ccccc3s2)cn1 | – | inactive: -0.258%
COc1ccc2c(c1)Cc1sc(NC(=O)c3ccccc3Br)nc1-2 | inconclusive: 31.6 µM [inhibitor, partial curve] | –
